Data reported in the RNAGym collection of RNA variant scans (doi:10.7554/elife.90254).
Read counts are not given, so values of variants with three or more changes are uncertain.

B1: LINE1-mini (parent)
chain: GGCAGAGCUCAACACAGCGUGGCAAAGUGGCUGUGGCUAGACUGCC

Variants of: B1
Assay: self-cleavage, relative activity (ratio to wild type); higher = more cleavage; in vitro, sequencing; the parent is a self-cleaving ribozyme

| Variant | self-cleavage |
| --- | --- |
| GGCAGCGCUCAACACAGCGUGGCAAAGUGGCUGUCGCUAGACUUCC [A6C G35C G44U] | 0.03 |
| GGCAGAGCUCAAAACAGCGAGGCAAAGUGGCUGUGGCAAGACUGCA [C13A U20A U38A C46A] | 0.02 |
| GACAGAGCUCAACACAGCGUGGCAAAGUGGUUGUUGCUAGUCUGCC [G2A C31U G35U A41U] | 0.02 |
| AGCAGAGCUCAACACAGCGUGGCAAACUGGCUUUGGCUAGCCUGCC [G1A G27C G33U A41C] | 0.09 |
| GGCAGAGCUCAACACAGCUUGGCAAAGUGGGUGUGGCUAGACUGCA [G19U C31G C46A] | 0.04 |
| GACAGAGUUAAACACAGCGUGGCAAAGUGGCUGUGGCUAGACUGCC [G2A C8U C10A] | 0.08 |
| GGCAGAGCUCAACACAGCAUGGCUAAGUGGCUGUGGCUAGACAGCC [G19A A24U U43A] | 1.75 |
| GGCAGAGCUCAACAUCGCAUAGCAAAGUGGCUGUAGCUAGACUGCC [C15U A16C G19A G21A G35A] | 0.3 |
| GGCAGAGCUCAACACAGCGUGGCAAAGUGGCUGUGUCUGGGCUGCC [G36U A39G A41G] | 0.02 |
| GGCGGAGCUCAACACAGCGUGGCAAAGUGGCUGUGUAUAGUCUGCC [A4G G36U C37A A41U] | 0.09 |
| GGCAAAGCUCAACACUACGUGGCAAAGUGGCUGUGGCCAGACUGCC [G5A A16U G17A U38C] | 0.14 |
| GGCAGAGCUCAACCCAGCGUUAGAAAGUGCCUGUGGCUGGACUGCC [A14C G21U G22A C23G G30C A39G] | 0.02 |
| GGUAGAGCUCAACAAAGCGUGGCUAAGUGGCUGUCGCUAGACUGCC [C3U C15A A24U G35C] | 0.33 |
| GGCCGAGCUCAACACAUCGUGGCAAAGUGGCUGUGACUAGACUGCC [A4C G17U G36A] | 0.19 |
| AGCAGAGUUCAACACACCGUGGCAAAGUGGCUGUGGCUAGACUGCC [G1A C8U G17C] | 0.81 |
| GGCAAAGCUCAACACAGCGUGGCAAAGUUGAUGUGGCUAGACUGCC [G5A G29U C31A] | 0.05 |
| GGCAGAGCUCAAUACAGCGUGGGAAAGUGGCUGUGGCUAGGCUGCC [C13U C23G A41G] | 0.03 |
| UGCAGAGCUCAACACAGCGUUGCAAAGUGGCUAUGGCUAGACUGCC [G1U G21U G33A] | 0.02 |
| GGCAUAGCUUAACACAGCGUGGCAAAGUGGCUGAGGCAAGACUGCC [G5U C10U U34A U38A] | 0.04 |

| Variant | self-cleavage |
| --- | --- |
| GGCAAAGCUCAACACAGCUUUGCAAAGUGGCUGUGGCUAGACUGCC [G5A G19U G21U] | 0.01 |
| GGCUGAGCUCAACAAAGCGUGGCAAAGUAGAUGUGGCUAGCCUGCC [A4U C15A G29A C31A A41C] | 0.02 |
| GGCAGUGCUCAACAUAGCGUGGCAAAGUGGCAGUGGCUAGAAUACC [A6U C15U U32A C42A G44A] | 0.05 |
| GGCAGAGGUCGACACAGCGUGGAAAAGUGGCUGUGGCUAGACUGCC [C8G A11G C23A] | 0.04 |
| GUCGGAGCUCAACACAAUGUGGCAAAGUGGCUGCGGGUAGACUGCC [G2U A4G G17A C18U U34C C37G] | 0.02 |
| GGUAGAGCUAAACACAGAUUGGCAACGUGGCCGUGGCUAGACCGCC [C3U C10A C18A G19U A26C U32C U43C] | 0.02 |
| GGCAGAGCUCAACACAGCGUUGCAUAGUGGCUUUGGCUAGACUGCC [G21U A25U G33U] | 0.05 |
| GGCAGAGCUCAACGCAGCGUGGCAAGGUGGCUGUGGCUAGACUGCA [A14G A26G C46A] | 0.24 |
| GGCAGAGCCCAACACAGCGUGGCAAAGUGGCCGUGGAUAGACUGCC [U9C U32C C37A] | 0.02 |
| GGCAUAGCUCAACACAGCGUGGCAAAGUUGCUGUGGCUAGACUGCU [G5U G29U C46U] | 0.06 |
| GGCAGAGCUCAGCACAGCGUGGCAAAGUGGCUGUGGAUAGACUGCG [A12G C37A C46G] | 0.05 |
| GCCAGAGCUCAACACAGAGUUGCAAAGUGGCUGCCGCUAGACUGCC [G2C C18A G21U U34C G35C] | 0.03 |
| GGCAGAGCGCAACACAGCGUGGCAAAGUGGCUGUGGCGAGCCUGCC [U9G U38G A41C] | 0 |
| GGCAGUGCUCAACACAGCGUGGUAAAGUGGCUGUGGUUAUACUGCC [A6U C23U C37U G40U] | 0.34 |
| GGCAGAGCUCAACACAGCGUGGCAAAGUCGCCAUCGCUAGUCGGGG [G29C U32C G33A G35C A41U U43G C45G C46G] | 0.01 |
| GGCAUAGCUCCACACAGCGUGGCAAAGUGGCUGUAGCUAGACUGCC [G5U A11C G35A] | 0.06 |
| GGCAGAGCUCAACACAGAGUGGCAAAUUGGCUGUGGCUAGACUGCU [C18A G27U C46U] | 0.55 |
| UGCAGAGAUCAAGACAGCGUGGCAAAGUGGCUGUGGCUAGACUGAC [G1U C8A C13G C45A] | 0.06 |
| GGCAGAGCUCAACACAGCGUGGGAAAGUGGCUUUGGCUAUACUGCC [C23G G33U G40U] | 0.23 |

| Variant | self-cleavage |
| --- | --- |
| GGCAGAGCUCAACACUGUGUGGCAAAGUGGCUGUGGCUAUACUGCC [A16U C18U G40U] | 0.12 |
| GGCAGAGCUGAACACAGCGUGGGAAAGUGUUUGUGGCUAGACUGCC [C10G C23G G30U C31U] | 0.09 |
| GGCAGAGCUCACCACAGCGUGGCAAAGUGCCUGUUGCUAGACUGCA [A12C G30C G35U C46A] | 0 |
| GGCAGUGCUCAACACAGCGUACCAACAUGGCUGUGGCUAGACUGCC [A6U G21A G22C A26C G27A] | 0.13 |
| GGCAGAGCUCCACAGAGCUGGGCAAAGUGGCUGUGGCUAGACUACC [A11C C15G G19U U20G G44A] | 0.01 |
| GGUAGAGCUCAACACAGCGUGACAAAAUGGCUGUGGCUAGACUCCC [C3U G22A G27A G44C] | 0.29 |
| GUCAGAGCUCCACACAGCGUGGCAAAGUGGCUGUGGCUUGACUGCC [G2U A11C A39U] | 0.02 |
| GGGAGGGCUCAACACAGCGUGGCGAAGUUGCUGUGGCUAAACUGCC [C3G A6G A24G G29U G40A] | 0.04 |
| AGAAGAGCUCAGCAAAGCGUCGCAAAGUGGCUGUGGUUAGACUGCC [G1A C3A A12G C15A G21C C37U] | 0.45 |
| CGCAGAGCUCAACACAGCGAGGGAAAGUGGCUGUGGCUAGACUGCC [G1C U20A C23G] | 0.04 |
| UGCAGAGCUCAACACAGCGUGGCAACGUGGCUGUUGCUUUACUGCA [G1U A26C G35U A39U G40U C46A] | 0.12 |
| GGGAGAGCUCAACAAAGCGUGGCAAAGGGGCUGUGGCUAGACUGCC [C3G C15A U28G] | 0.09 |
| GGCAGGGCUCAACACAUGGUGGCAAAGUGGCUGUGGCUAGACUGCG [A6G G17U C18G C46G] | 0.01 |
| GUCAGCGCUCAACACAGCGUGGCAAAGUGUCUGUGGCUAGACUGCC [G2U A6C G30U] | 0.17 |
| GGCAGACCUCAACACAGCAUGGCAAAGAGGCUGUGGCUACACUGCC [G7C G19A U28A G40C] | 0.51 |
| GCCUGACCUCAACACAGCGUGGCAAAGUGGCUGUGGCUAGACUGCC [G2C A4U G7C] | 0.05 |
| GGCAGAGCUCAACACAGCCUGGCAGAGUGGCUGAGGAUAGACUGCC [G19C A25G U34A C37A] | 0.08 |
| GGGAGAGCACAACCCAGCGUGGCAAAGUGGCUAUGGCUAGACUGCG [C3G U9A A14C G33A C46G] | 0.17 |
